In US20220411514A1, “ANTI-GAL3 ANTIBODIES AND METHODS OF USE FOR INSULIN RESISTANCE” (TrueBinding, Inc., priority 2021, published 2022):

Experiments:
[1] = target: interaction between Gal3 and GLUT1 (Homo sapiens, UniProt P17931); test: Gal3-GLUT1 blocking ELISA; format: binding; settings: antibody 3-fold dilutions
Protocol: (§1) Human Gal3 protein was diluted in PBS to a concentration of 2 μg/mL and used to coat a 96-well ELISA plate with 40 μL per well. After incubating the plate at 4° C. overnight, the plate was washed three times with 300 μL PBST. A blocking step was performed with 150 μL of 2% BSA in PBST per well and incubated for an hour at RT with gentle rocking. The existing blocking solution was then discarded form the plate. […] 30 μL of 3 μg/mL of FLAG-tagged GLUT1 or GLUT4 protein diluted in 2% BSA in PBST was then added to the appropriate wells containing antibody or control solution. The plate was incubated for an hour at RT with gentle rocking and then washed three times with 300 μL PBST. Afterwards, HRP-tagged anti-FLAG antibody was diluted to 1:4000 in 2% BSA in PBST, and 25 μL was added to all of the wells. The plate was incubated for an hour at RT with gentle rocking, and then washed with 300 μL PBST three times. To develop the plate, 50 μL of ABTS substrate was added to each well and incubated until a sufficiently high signal was achieved. The plate was read with a plate reader at an absorbance of 405 nm. Data was graphed using GraphPad Prism 8.0 software and IC50 values were generated using manufacturer instructions.

[2] = target: interaction between Gal3 and GLUT4 (Homo sapiens, UniProt P17931); test: Gal3-GLUT4 blocking ELISA; format: binding; settings: antibody 3-fold dilutions
Protocol: as §1

His-EK-ratGal3 = target: T1, His-EK-ratGal3 (Rattus norvegicus, UniProt P08699); test: Affinity kinetics to rat Gal3 (Biacore T200); format: binding
T1 sequence (P08699 1-262): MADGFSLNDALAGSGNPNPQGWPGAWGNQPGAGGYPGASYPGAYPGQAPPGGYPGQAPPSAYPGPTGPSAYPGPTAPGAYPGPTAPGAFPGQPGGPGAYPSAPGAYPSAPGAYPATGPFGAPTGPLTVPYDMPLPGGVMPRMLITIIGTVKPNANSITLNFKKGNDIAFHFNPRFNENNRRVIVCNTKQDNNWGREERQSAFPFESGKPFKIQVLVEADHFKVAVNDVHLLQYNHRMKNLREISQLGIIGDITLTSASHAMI
Protocol: In each sample cycle, duplicates of the same antibody in HBS-EP+ with 0.5 mg/mL BSA at 10 μg/mL were captured to FC2 and FC4 by flowing at 10.0 μL/min for 120 seconds, and then diluted His-EK-ratGal3 in HBS-EP+ with 0.5 mg/mL BSA was injected to all 4 flow cells at 30.0 μL/min for 180 seconds, followed by dissociation for 240 seconds. A dilution series of His-EK-ratGal3 started from 300 nM, and was 1:3 diluted for 6 points. FC1 and FC3 were used as reference flow cells, and their sensograms were subtracted from FC2 and FC4 respectively to reduce non-specific binding background. Also, an additional sample cycle at 0 nM analyte was run, and its sensogram was subtracted from those of non-zero nM cycles to address machine drifts and bulk shifts. The data were analyzed by Biacore Evaluation software version 2.0. The binding affinities were characterized by fitting the kinetic sensograms to a monovalent binding model (1:1 binding).
The affinity of Gal3 binding to antibody was determined by acquiring real time Ligand:Analyte binding kinetics data and fitting the data with a 1:1 monovalent binding model. The kinetic evaluation procedure determines association and dissociation constants by fitting the experimental data to a 1:1 interaction model between analyte A and ligand B:
The affinity KD is the result of Kd divided by Ka.
The protocol disclosed in Example 9 was generally followed.

[3] = tested on: GLUT4 translocation in L6 GLUT4myc myoblasts; test: Insulin-stimulated GLUT4 translocation with Gal3 and anti-Gal3 antibody; format: cell-based, rat; settings: 30 μg/mL Gal3 pre-incubated with 60 μg/mL antibody, 100 nM insulin
Protocol: Rat L6 GLUT4myc myoblasts (Kerafast #ESK202-FP) express a Myc-tagged GLUT4 that can be detected with an anti-Myc antibody. These cells were grown in a 48-well plate in MEM u growth media (Gibco, #12-571-063)+10% fetal bovine serum (FBS; Corning #35-016-CV) until 90-95% confluence was reached. Cells were then washed in PBS and serum starved for 2 hours in MEM u growth media without FBS. Thirty (30) μg/mL recombinant human Gal3 (TrueBinding QCB200347) was pre-incubated with 60 μg/mL anti-Gal3 antibodies for 30 minutes before being added to the serum-starved cells for 1 hour at 37° C. At the end of incubation, half of the cells were treated with 100 nM insulin (Sigma-Aldrich #I5523-50MG) for 20 minutes while the other half acted as basal controls. After 20 minutes, cells were washed quickly with ice cold PBS twice, then incubated with 4% paraformaldehyde (Boster Bio #AR1068) for 10 minutes on ice followed by 10 minutes at room temperature. The cells were washed three times with PBS, then blocked with 0.5 mL 5% goat serum (Vector Laboratories #101098-382) in PBS for 15 minutes. After the blocking agent was aspirated from the cells, 1 μg/ml anti-Myc polyclonal antibody (Sigma-Aldrich #C-3956) in 5% goat serum was added for 1 hour. […] Primary antibody was aspirated away, and then cells washed 5 times with PBS. Next, cells (including background controls) were incubated with 1:1000 goat anti rabbit antibody secondary antibody (Abcam #Ab97051) in 5% Goat serum for 30 minutes at room temperature. After washing, cells were incubated with 400 μL of TMB (Thermo Scientific #PI34029) for 5 minutes, then 200 μL of 1N HCL (Avantor Performance #JT5620-2) was added to stop the reaction. 100 μL of the sample was transferred to a 96 well plate with duplicates transferred for each condition. Samples were read at 450 nm on a SpectraMax plate reader. […] The fold changes were plotted on GraphPad Prism and presented as mean (SEM) of the technical replicates. Statistical significance was determined using unpaired T-tests comparing samples treated with Gal3 and insulin with all other conditions.

[4] = tested on: GLUT4 translocation in L6 GLUT4myc myoblasts; test: Insulin-independent GLUT4 translocation with Gal3 mutants complexed with antibody; format: cell-based, rat; settings: no insulin
Protocol: Rat L6 GLUT4myc myoblasts (Kerafast #ESK202-FP) express a Myc-tagged GLUT4 that can be detected with an anti-Myc antibody. These cells were grown in a 48-well plate in MEM u growth media (Gibco, #12-571-063)+10% fetal bovine serum (FBS; Corning #35-016-CV) until 90-95% confluence was reached. Cells were then washed in PBS and serum starved for 2 hours in MEM u growth media without FBS. Thirty (30) μg/mL recombinant human Gal3 (TrueBinding QCB200347) was pre-incubated with 60 μg/mL anti-Gal3 antibodies for 30 minutes before being added to the serum-starved cells for 1 hour at 37° C. At the end of incubation, half of the cells were treated with 100 nM insulin (Sigma-Aldrich #I5523-50MG) for 20 minutes while the other half acted as basal controls. After 20 minutes, cells were washed quickly with ice cold PBS twice, then incubated with 4% paraformaldehyde (Boster Bio #AR1068) for 10 minutes on ice followed by 10 minutes at room temperature. The cells were washed three times with PBS, then blocked with 0.5 mL 5% goat serum (Vector Laboratories #101098-382) in PBS for 15 minutes. […] Samples were read at 450 nm on a SpectraMax plate reader. […] Statistical significance was determined using unpaired T-tests comparing samples treated with Gal3 and insulin with all other conditions. […]

interaction between Gal3 and GLUT1, sequence (P17931 whole entry): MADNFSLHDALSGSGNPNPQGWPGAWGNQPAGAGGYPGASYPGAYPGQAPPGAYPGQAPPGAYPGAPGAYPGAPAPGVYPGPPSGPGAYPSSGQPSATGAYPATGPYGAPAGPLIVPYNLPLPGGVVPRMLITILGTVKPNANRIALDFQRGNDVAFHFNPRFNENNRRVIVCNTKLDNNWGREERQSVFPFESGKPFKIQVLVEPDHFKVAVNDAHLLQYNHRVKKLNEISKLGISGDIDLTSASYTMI
interaction between Gal3 and GLUT4, sequence (P17931 whole entry): as above

- inhibition of GLUT1 binding to Gal3 [1]: concentration-dependent ability
- inhibition of GLUT4 binding to Gal3 [2]: concentration-dependent ability
- affinity (KD) for rat Gal3 (His-EK-ratGal3; Example 9): undetected
- average affinity to His-EK-ratGal3 (His-EK-ratGal3; Example 14): did not bind
B1: TB006: humanized anti-Gal3 antibody derived from mouse mAb, hIgG4 backbone (antibody)
heavy: QVQLVQSGAEVKKPGASVKVSCKASGYSFTNYYMHWVRQAPGQRLEWMGWIYPGSGNTNYNEKFQGRVTITADTSASTAYMELSSLRSEDTAVYYCSTAPGGFDVWGQGTTVTVSSASTKGPSVFPLAPCSRSTSESTAALGCLVKDYFPEPVTVSWNSGALTSGVHTFPAVLQSSGLYSLSSVVTVPSSSLGTKTYTCNVDHKPSNTKVDKRV[in this place human IgG4 Fc with S228P (EU numbers)]
light: DIVMTQTPLSLSVTPGQPASISCKSSKSLLHSDGITYLYWYLQKPGQSPQLLIYRMSNLASGVPDRFSGSGSGTDFTLKISRVEAEDVGVYYCAQMLEFPLTFGQGTKLEIKRTVAAPSVFIFPPSDEQLKSGTASVVCLLNNFYPREAKVQWKVDNALQSGNSQESVTEQDSKDSTYSLSSTLTLSKADYEKHKVYACEVTHQGLSSPVTKSFNRGEC
modifications: TB006 heavy chain peptide sequence; TB006 light chain peptide sequence
notes: humanized anti-Gal3 antibody derived from mouse mAb, hIgG4 backbone
- effect on Gal3 block of insulin-stimulated GLUT4 translocation [3]: reduce the ability of Gal3 to block GLUT4 translocation
- insulin-independent GLUT4 translocation, antibody complexed with hGal3 amino acids 2-112 (N-terminal domain) [4]: significantly reduced GLUT4 translocation
- insulin-independent GLUT4 translocation, antibody complexed with hGal3 amino acids 111-250 (C-terminal domain) [4]: significantly reduced GLUT4 translocation
